The target of assay [1] is T1, B2 receptor without BRET tag (B2 and HA-B2, both referred to as B2) (human) (UniProt P30411).
T1 sequence: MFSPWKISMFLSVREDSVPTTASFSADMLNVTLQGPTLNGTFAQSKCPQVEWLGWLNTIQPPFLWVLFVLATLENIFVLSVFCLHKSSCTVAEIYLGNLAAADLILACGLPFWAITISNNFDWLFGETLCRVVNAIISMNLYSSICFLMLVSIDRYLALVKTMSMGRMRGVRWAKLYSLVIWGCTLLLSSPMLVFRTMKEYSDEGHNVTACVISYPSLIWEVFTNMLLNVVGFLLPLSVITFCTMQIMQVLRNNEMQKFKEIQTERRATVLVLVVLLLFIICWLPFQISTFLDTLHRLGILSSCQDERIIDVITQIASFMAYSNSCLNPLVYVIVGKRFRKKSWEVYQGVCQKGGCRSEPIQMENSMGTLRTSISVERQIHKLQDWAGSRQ
Description: FRET or BRET; Receptor-HIT on the BRET platform in live HEK293FT cells: a BRET-tagged receptor, a second receptor without BRET tag and a BRET-tagged interacting protein coexpressed; ligand-induced BRET after BK, AngII or PGE2, 37°C; some panels with pretreatment with PD 123319 or icatibant. (In general: In BRET a luciferase serves as donor, and the signal depends on an acceptor being close.)

Chains of the proteins cited; added tags and fusions are not shown.
UniProt P32121: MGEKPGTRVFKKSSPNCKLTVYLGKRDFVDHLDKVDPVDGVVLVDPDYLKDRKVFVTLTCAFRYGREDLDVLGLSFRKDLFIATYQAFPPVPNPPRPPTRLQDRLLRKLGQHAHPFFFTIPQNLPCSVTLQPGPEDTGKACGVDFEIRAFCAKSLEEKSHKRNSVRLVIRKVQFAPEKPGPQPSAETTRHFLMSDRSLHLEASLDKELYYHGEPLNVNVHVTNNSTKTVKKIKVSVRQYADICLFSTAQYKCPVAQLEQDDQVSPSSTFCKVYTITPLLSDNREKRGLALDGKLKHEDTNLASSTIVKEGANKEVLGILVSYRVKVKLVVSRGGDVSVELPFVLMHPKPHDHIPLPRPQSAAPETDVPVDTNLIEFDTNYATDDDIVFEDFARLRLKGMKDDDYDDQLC
UniProt P19086: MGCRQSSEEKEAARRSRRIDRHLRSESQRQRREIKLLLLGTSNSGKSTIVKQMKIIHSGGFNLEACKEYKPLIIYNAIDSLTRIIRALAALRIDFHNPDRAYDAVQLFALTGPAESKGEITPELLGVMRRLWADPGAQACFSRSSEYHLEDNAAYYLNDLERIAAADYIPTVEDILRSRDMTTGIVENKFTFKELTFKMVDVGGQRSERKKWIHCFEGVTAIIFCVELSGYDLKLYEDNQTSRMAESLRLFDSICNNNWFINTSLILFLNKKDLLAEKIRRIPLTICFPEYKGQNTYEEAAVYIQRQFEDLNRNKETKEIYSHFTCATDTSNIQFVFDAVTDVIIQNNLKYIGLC

Assay [2] concerns the target T2, B2 receptor tagged with Rluc8 (B2-Rluc8) (human) (UniProt P30411).
T2 sequence: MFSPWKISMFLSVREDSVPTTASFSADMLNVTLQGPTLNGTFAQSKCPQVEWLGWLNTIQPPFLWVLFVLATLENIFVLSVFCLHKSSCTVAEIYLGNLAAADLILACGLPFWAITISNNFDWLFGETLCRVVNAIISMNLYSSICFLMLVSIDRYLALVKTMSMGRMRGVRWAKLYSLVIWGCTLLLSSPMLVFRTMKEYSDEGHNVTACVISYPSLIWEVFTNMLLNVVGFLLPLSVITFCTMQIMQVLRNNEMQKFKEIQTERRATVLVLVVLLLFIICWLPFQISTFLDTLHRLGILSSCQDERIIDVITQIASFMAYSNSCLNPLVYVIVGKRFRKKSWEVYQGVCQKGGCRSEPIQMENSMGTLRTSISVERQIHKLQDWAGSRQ
Described as above.

The target in assay [3] is T2, B2 receptor tagged with Rluc8 (B2-Rluc8) (human). Description: FRET or BRET; BRET1/eBRET in live HEK293FT cells, one BRET-tagged receptor and one BRET-tagged interacting protein coexpressed, no second receptor; ligand-induced BRET after AngII or BK, 37°C.
Assay [4] addresses T3, Venus-tagged AT2 receptor (AT2-Venus, rat) (rat) (UniProt P35351).
T3 sequence: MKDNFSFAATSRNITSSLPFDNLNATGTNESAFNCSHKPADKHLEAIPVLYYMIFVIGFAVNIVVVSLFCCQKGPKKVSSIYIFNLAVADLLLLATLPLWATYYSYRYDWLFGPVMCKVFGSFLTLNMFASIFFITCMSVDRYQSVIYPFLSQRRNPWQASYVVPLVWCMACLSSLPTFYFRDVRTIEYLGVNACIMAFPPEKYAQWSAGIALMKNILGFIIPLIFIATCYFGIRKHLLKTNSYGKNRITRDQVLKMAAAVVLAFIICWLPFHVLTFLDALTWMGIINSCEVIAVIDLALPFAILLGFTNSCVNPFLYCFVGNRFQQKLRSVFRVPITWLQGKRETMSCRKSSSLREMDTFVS
The assay can be described thus: FRET or BRET; Receptor-HIT on the BRET platform in live HEK293FT cells: a BRET-tagged receptor, a second receptor without BRET tag and a BRET-tagged interacting protein coexpressed; ligand-induced BRET after BK, AngII or PGE2, 37°C; some panels with pretreatment with PD 123319 or icatibant.

The target of assay [5] is T3, Venus-tagged AT2 receptor (AT2-Venus, rat) (rat). The assay can be described thus: FRET or BRET; BRET1/eBRET in live HEK293FT cells, one BRET-tagged receptor and one BRET-tagged interacting protein coexpressed, no second receptor; ligand-induced BRET after AngII or BK, 37°C.
Assay [6] deals with T4, Rluc8-tagged AT2 receptor (AT2-Rluc8, rat) (rat) (UniProt P35351).
T4 sequence: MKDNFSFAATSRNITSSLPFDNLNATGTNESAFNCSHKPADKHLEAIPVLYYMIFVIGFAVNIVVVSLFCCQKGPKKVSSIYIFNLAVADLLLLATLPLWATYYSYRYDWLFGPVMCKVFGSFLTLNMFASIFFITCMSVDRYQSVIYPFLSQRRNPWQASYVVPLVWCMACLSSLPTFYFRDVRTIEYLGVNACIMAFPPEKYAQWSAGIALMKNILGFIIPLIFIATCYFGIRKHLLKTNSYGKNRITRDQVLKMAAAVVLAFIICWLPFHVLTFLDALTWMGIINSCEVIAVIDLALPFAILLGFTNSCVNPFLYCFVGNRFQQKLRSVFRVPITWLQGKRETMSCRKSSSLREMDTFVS
Description: FRET or BRET; Receptor-HIT on the BRET platform in live HEK293FT cells: a BRET-tagged receptor, a second receptor without BRET tag and a BRET-tagged interacting protein coexpressed; ligand-induced BRET after BK, AngII or PGE2, 37°C; some panels with pretreatment with PD 123319 or icatibant.

For assay [7], the target named is T5, Venus-tagged B2 receptor (B2-Venus) (human, UniProt P30411 1-391).
T5 construct: made by replacing the Rluc8 coding region of B2-Rluc8 with Venus cDNA; C-terminal end of the tag follows from the parent B2-Rluc8; source: HEK293FT, transiently transfected, in live cells; not shown: Venus, C-terminal, kept
T5 sequence (looked up): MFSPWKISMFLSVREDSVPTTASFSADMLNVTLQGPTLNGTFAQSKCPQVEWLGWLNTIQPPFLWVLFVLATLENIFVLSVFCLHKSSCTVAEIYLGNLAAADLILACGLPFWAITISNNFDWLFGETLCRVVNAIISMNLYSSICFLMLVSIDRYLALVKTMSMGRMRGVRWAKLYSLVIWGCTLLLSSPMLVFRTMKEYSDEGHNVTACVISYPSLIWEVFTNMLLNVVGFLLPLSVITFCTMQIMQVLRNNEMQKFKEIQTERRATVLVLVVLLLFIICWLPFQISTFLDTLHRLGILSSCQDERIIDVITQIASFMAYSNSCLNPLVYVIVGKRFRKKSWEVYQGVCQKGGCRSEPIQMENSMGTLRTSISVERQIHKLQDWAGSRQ
The description is as above.

Assay [8] concerns the target T5, Venus-tagged B2 receptor (B2-Venus). The assay can be described thus: FRET or BRET; BRET1/eBRET in live HEK293FT cells, one BRET-tagged receptor and one BRET-tagged interacting protein coexpressed, no second receptor; ligand-induced BRET after AngII or BK, 37°C.

Results are given in words; binding and its absence hold for the method and conditions named. In cells and extracts the contact can be indirect. Some binding calls cover weakened binding; strength is not graded here. Tags and fused reporters may be left off the sequences shown.

Turning to “β-arrestin2 tagged with Venus (β-arrestin2-Venus) (from UniProt P32121 1-409)”, the binding result in assay [1], in assay [2] and in assay [3] was “binds” each time.

In the case of “Gαz tagged with Rluc8 (Gαz-Rluc8) (from UniProt P19086 1-355)”, the binding entry in assay [4] and in assay [5] was “no binding” in each case.

B1: prostaglandin E receptor 3 (EP3 receptor) (receptor, UniProt P43115 1-390)
chain: MKETRGYGGDAPFCTRLNHSYTGMWAPERSAEARGNLTRPPGSGEDCGSVSVAFPITMLLTGFVGNALAMLLVSRSYRRRESKRKKSFLLCIGWLALTDLVGQLLTTPVVIVVYLSKQRWEHIDPSGRLCTFFGLTMTVFGLSSLFIASAMAVERALAIRAPHWYASHMKTRATRAVLLGVWLAVLAFALLPVLGVGQYTVQWPGTWCFISTGRGGNGTSSSHNWGNLFFASAFAFLGLLALTVTFSCNLATIKALVSRCRAKATASQSSAQWGRITTETAIQLMGIMCVLSVCWSPLLIMMLKMIFNQTSVEHCKTHTEKQKECNFFLIAVRLASLNQILDPWVYLLLRKILLRKFCQIRYHTNNYASSSTSLPCQCSSTLMWSDHLER
Consider B1, for which the binding result in assay [6] is given as “no binding”.

B2: Rluc8-tagged GRK2 (GRK2-Rluc8) (enzyme, UniProt P25098 1-689, looked up)
chain: MADLEAVLADVSYLMAMEKSKATPAARASKKILLPEPSIRSVMQKYLEDRGEVTFEKIFSQKLGYLLFRDFCLNHLEEARPLVEFYEEIKKYEKLETEEERVARSREIFDSYIMKELLACSHPFSKSATEHVQGHLGKKQVPPDLFQPYIEEICQNLRGDVFQKFIESDKFTRFCQWKNVELNIHLTMNDFSVHRIIGRGGFGEVYGCRKADTGKMYAMKCLDKKRIKMKQGETLALNERIMLSLVSTGDCPFIVCMSYAFHTPDKLSFILDLMNGGDLHYHLSQHGVFSEADMRFYAAEIILGLEHMHNRFVVYRDLKPANILLDEHGHVRISDLGLACDFSKKKPHASVGTHGYMAPEVLQKGVAYDSSADWFSLGCMLFKLLRGHSPFRQHKTKDKHEIDRMTLTMAVELPDSFSPELRSLLEGLLQRDVNRRLGCLGRGAQEVKESPFFRSLDWQMVFLQKYPPPLIPPRGEVNAADAFDIGSFDEEDTKGIKLLDSDQELYRNFPLTISERWQQEVAETVFDTINAETDRLEARKKAKNKQLGHEEDYALGKDCIMHGYMSKMGNPFLTQWQRRYFYLFPNRLEWRGEGEAPQSLLTMEEIQSVEETQIKERKCLLLKIRGGKQFILQCDSDPELVQWKKELRDAYREAQQLVQRVPKMKNKPRSPVVELSKVPLVQRGSANGL
notes: GPCR kinase 2 (GRK2); construct synthesized by GeneArt; also called GPCR kinase 2; source: HEK293FT, transiently transfected, in live cells
For B2, the binding result in assay [7] and in assay [8] was “binds” throughout.
